Reference: the supplement of paper PMC12645437, “Orthogonal IMiD-Degron Pairs Induce Selective Protein Degradation in Cells” (ACS Chemical Biology, 2025)
Some of the results follow.

Molecular target: no compound (DMSO)
Assay: log2 fold change of degron read counts, EGFP-low vs EGFP+ sorted cells; higher = lower degron-EGFP level without compound (poor expression or instability)
Settings: compound: DMSO control; 18 h
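Note: jurkat cells carrying a lentiviral library of mutant zinc finger degrons fused to EGFP plus mCherry, mCherry+ cells FACS sorted, degron abundance counted by next-generation sequencing.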

Sequence | log2 fold change of degron read counts
FKCNVCGAVFTQKGNLLRHIKL | -1.28
FLCSVCGHSFTQKGNLLRHIKL | -0.841
FCCPQCGATFTQKGNLLRHIKL | -1.26
FRCPICGAPFTQKGNLLRHIKL | 0.575
FDCPVCGAVFTQKGNLLRHIKL | -0.199
FVCPICGAEFTQKGNLLRHIKL | -0.362
FSCEICGAQFTQKGNLLRHIKL | -1.48
FRCPICGRMFTQKGNLLRHIKL | 0.215
LSCPICGFACTQKGNLLRHIKL | 0.657
FQCEICGRWFTQKGNLLRHIKL | -0.413
LKCPICGFSCTQKGNLLRHIKL | 0.45
FYCPICGRYFTQKGNLLRHIKL | -2.56
FNCEICGAKFTQKGNLLRHIKL | -1.49
LNCPICGFSCTQKGNLLRHIKL | 0.336
FACPICGHWFTQKGNLLRHIKL | 0.6
FMCEICGHPFTQKGNLLRHIKL | -0.354
FQCDICGARFTQKGNLLRHIKL | -2.23
LTCEICGFICTQKGNLLRHIKL | 0.407
FACNQCGRGFTQKGNLLRHIKL | 0.221
FLCPVCGALFTQKGNLLRHIKL | 0.44
FKCPICGHYFTQKGNLLRHIKL | -0.0387
FFCDICGAFFTQKGNLLRHIKL | -0.172
FMCPQCGASFTQKGNLLRHIKL | -1.16
FTCNQCGHRFTQKGNLLRHIKL | 0.217
FACPICGAIFTQKGNLLRHIKL | 0.435

Sequence | log2 fold change of degron read counts
FFCPICGHRFTQKGNLLRHIKL | 0.135
FWCNICGAAFTQKGNLLRHIKL | 0.257
FACNVCGATFTQKGNLLRHIKL | 0.0604
FCCSVCGHRFTQKGNLLRHIKL | 0.334
LICNQCGFYCTQKGNLLRHIKL | 1.29
FMCNQCGHPFTQKGNLLRHIKL | 0.0871
FRCPVCGAIFTQKGNLLRHIKL | 0.511
FECEQCGANFTQKGNLLRHIKL | -2.08
FSCPQCGAMFTQKGNLLRHIKL | -1.11
FQCEVCGADFTQKGNLLRHIKL | -2.33
FVCNQCGRWFTQKGNLLRHIKL | 0.359
LYCNQCGFRCTQKGNLLRHIKL | 0.838
FHCEVCGAMFTQKGNLLRHIKL | -1.65
FRCNQCGHCFTQKGNLLRHIKL | 0.186
FECNQCGAPFTQKGNLLRHIKL | -1.35
FKCNVCGANFTQKGNLLRHIKL | -1.34
FECPQCGAYFTQKGNLLRHIKL | -0.948
FMCDICGAVFTQKGNLLRHIKL | -0.816
FRCDVCGAAFTQKGNLLRHIKL | -0.879
FHCNQCGASFTQKGNLLRHIKL | -0.718
FCCNICGAFFTQKGNLLRHIKL | 0.257
FYCPVCGACFTQKGNLLRHIKL | 0.389
FVCEICGRKFTQKGNLLRHIKL | -0.684
FSCDICGAQFTQKGNLLRHIKL | -1.32
LGCNQCGFKCTQKGNLLRHIKL | 1.06
